Measurements: PMC12040169 (PLOS Biology, 2025)
Read-outs that look alike come from different tables or passages of the source. This is one part of the list.

System: T1, C. trachomatis L2/434/Bu expressing GFP (CTL2-GFP)
T1 construct: L2/434/Bu GFP intracellular growth in HeLa cells
Set-up: species or system HeLa; C. trachomatis total inclusion area by high-content imaging, normalised to DMSO
Summary of the method: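 Host cell viability was gauged from Hoechst-stained nuclei counts, while chlamydial growth was taken from total inclusion area and inclusion number per well. Cells were fixed and imaged by high-content microscopy once bulk GFP and resorufin fluorescence had been measured.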

[1] = total inclusion area; 28.5 h, 10 µM; inhibitor

Row | Compound | % of control remaining [1] | % of control remaining (total inclusion area, 28.5 h, 10 µM, inhibitor)
1 | O=C(Nc1ccccc1)c1ccc(N2CCN(c3ccccn3)CC2)c(S(=O)(=O)N2CCOCC2)c1 [CBK266810] | 92.0894 | –
2 | O=C(NCc1ccccn1)c1cc(-c2ccc(Cl)cc2)on1 [CBK116558] | 119.175 | –
3 | c1cnc2cc(Oc3ccc4nccnc4c3)ccc2n1 [CBK267266] | 108.105 | –
4 | COc1ccc(CNC(=O)N2CCN(c3cc(C(F)(F)F)ccn3)CC2)cc1OC [CBK162344] | 84.013 | –
5 | CC1CCc2n[nH]c(C(=O)N3CCC(O)C(C)C3)c2C1 (stereo not shown) [CBK283207] | 99.4975 | –
6 | Fc1cc2c3c(c1)c1c(n3CCO2)CCNCC1 [CBK018018C] | 82.5157 | –
7 | CC1(C)C2C(=O)C(c3ccccn3)=C(N)N2C(C)(C)C1(C)C (stereo not shown) [CBK022153] | 63.464 | –
8 | CCC(C)NCc1cccc(Oc2ncccn2)c1 (stereo not shown) [CBK288090] | 81.7475 | –
9 | Cc1cc(C)nc(Nc2ccc(C3CCCN(C(=O)c4c(C)oc5c4CCCC5)C3)nc2)n1 (stereo not shown) [CBK285988] | 130.702 | –
10 | O=c1[nH]c2ncc(-c3cccnc3)nc2n1Cc1ccc(Cl)cc1 [CBK064561] | 100.847 | –
11 | CC(=O)Nc1nnc(SCC(=O)N2CCN(c3ccc(Cl)cc3)CC2)s1 [CBK307384] | 43.4796 | –
12 | CCN1CCCN(c2cc(OCc3ccc(Cl)c(Cl)c3)ncn2)CC1 [CBK083786] | 86.8476 | –
13 | Cn1c(N2CCCC(C(=O)NCC3CC3)C2)nc2ccccc21 (stereo not shown) [CBK283987] | 96.0278 | –
14 | CCN(CC)C(=O)CN1C(=O)N2CCCN=C2c2ccc(Cl)cc21 [CBK284386] | 85.4411 | –
15 | Cc1nnc(SCC(=O)Nc2nsc(-c3ccc(Cl)cc3)n2)s1 [CBK266525] | 94.0925 | –
16 | COc1cccc(OC)c1-c1cn2ccnc2c(N(C)CCN(C)C)n1 [CBK066398] | 133.803 | –
17 | COc1ccc([C@@]23CC[C@@H](NC(=O)Cc4ccc(Cl)cc4)CC2N(C)CC3)cc1OC (stereo partly shown) [CBK074971T] | 104.383 | –
18 | Cc1c(C(=O)O)sc2nc(SCC(=O)NCc3ccccc3)[nH]c(=O)c12 [CBK287609] | – | 80.406
19 | CCNC(=S)N1CCN(CCNC=C2C(=O)CC(c3ccco3)CC2=O)CC1 (stereo not shown) [CBK264742] | 108.989 | –
20 | COc1ccc(OC)c(-n2cnc3c2NC(=O)CC3c2ccccc2Cl)c1 (stereo not shown) [CBK287983] | 113.764 | –
21 | CC(C)NC(=O)c1cc(C2CCN(C(=O)CCOc3ccccc3F)C2)nc2ccccc12 (stereo not shown) [CBK285917] | 96.5472 | –
22 | CC(O)c1cc2c(cc1NC(=O)c1cnn3c1NC(c1ccco1)CC3C(F)(F)F)OCO2 (stereo not shown) [CBK268850] | 111.665 | –
23 | CN1C(=O)c2ccccc2C(=O)[C@@]2(C)CN(C(=O)c3ccccc3)C[C@@H]12 [CBK281685] | 106.605 | –
24 | CN1CCN(C)C(COc2cc(C(F)(F)F)ccn2)C1 (stereo not shown) [CBK113460] | 94.36 | –
25 | O=C(COc1ccccc1)Nc1ccc(N2CCOCC2)c2nonc12 [CBK268149] | 82.9008 | –
26 | C=CCn1c(CCCNC=O)nc2ccccc21 [CBK269375] | 94.4036 | –
27 | O=C(O)C(Cc1ccccc1)Nc1ncnc2c1oc1ccccc12 (stereo not shown) [CBK266719] | 81.6101 | –

Row | Compound | % of control remaining [1] | % of control remaining (total inclusion area, 28.5 h, 10 µM, inhibitor)
28 | CC(SCc1ccccc1)C(=O)NCC1CCN(c2ccccc2)C1 (stereo not shown) [CBK298329] | 99.6056 | –
29 | O=C(c1cc(S(=O)(=O)NCc2ccco2)c(Cl)cc1Cl)N1CCC1 [CBK305004] | 88.0085 | –
30 | COC(=O)c1c(NC(=S)NCc2ccccn2)sc2c1CCC2 [CBK267090] | 100.325 | –
31 | CCn1cc(C(=O)N2CCN(Cc3ccco3)C[C@@H]2C(C)C)cn1 [CBK284307] | 59.3155 | –
32 | Cc1ccc2[nH]c(=O)c(CNc3ccc(-c4nc5cc(C)ccc5[nH]4)cc3)cc2c1 [CBK286161] | 70.6432 | –
33 | O=C(NCc1ccc(-c2csnn2)cc1)c1ccco1 [CBK149289] | 97.0169 | –
34 | COc1ccc(N(CC(=O)NC2CC3CCC2C3)S(=O)(=O)c2ccc(C)cc2)cc1 (stereo not shown) [CBK266574] | 106.605 | –
35 | O=C(NCc1cccs1)C1(Cc2ccccc2-c2ccc(F)c(F)c2)CCOCC1 [CBK286417] | 79.8837 | –
36 | O=c1c2c3nc4ccccc4nc3n(CCc3ccccc3)c2ncn1Cc1ccco1 [CBK269502] | 68.8332 | –
37 | COc1ccc(N2C(=O)c3ccc(C(=O)Nc4ccccc4C(=O)O)cc3C2=O)cc1O [CBK262833] | 101.863 | –
38 | Cc1cccc(NC(=O)NCCCn2c(-c3ccncc3)nc3cccnc32)c1 [CBK288580] | 103.75 | –
39 | Cc1ccc(O)c(CN[C@@H]2CCC[C@H]2Cc2cc(C)no2)c1 [CBK284936] | 128.516 | –
40 | Cc1c(C)n(Cc2ccccc2)c2ccc(C(=O)OCCCN(C)C)cc12 [CBK087693] | 78.4221 | –
41 | c1cnc2[nH]c(C3CCOCC3)c(CN3CCSCC3)c2c1 [CBK284688] | 68.2429 | –
42 | Oc1cc2cccnc2nc1-c1ccc2c(c1)CCO2 [CBK073698] | 85.3351 | –
43 | O=C(NCCn1nc(-c2cccs2)oc1=O)C1CCCCC1 [CBK282343] | 59.4042 | –
44 | CC(=O)N1CC[C@H]2NC(=O)CNC(=O)C3(CCCC[C@H]2C1)CCNCC3 [CBK292142] | 98.3055 | –
45 | O=C(c1ccc[nH]1)N1Cc2ccccc2C1 [CBK200319] | 113.845 | –
46 | O=C(O)CCN1CCC2(CCN(C(=O)c3cc(F)c(F)cc3F)C2)C1 (stereo not shown) [CBK137123] | 83.9206 | –
47 | CC1OCCC12CN(c1cc(CO)c(F)cn1)CCO2 (stereo not shown) [CBK304775] | 105.835 | –
48 | CC(=O)c1ccc(-c2nccnc2N[C@@H]2CCN(Cc3ccccc3)C2)s1 [CBK036981] | 61.0962 | –
49 | O=C(O)c1ccc(Cl)c(S(=O)(=O)Nc2ccc(I)cc2)c1 [CBK296132] | 82.9952 | –
50 | Cc1ncc(C(O)c2ccc(Cl)cc2)c2c1OC(C)(C)OC2 (stereo not shown) [CBK010749] | 80.7542 | –
51 | COc1ccc([N+](=O)[O-])cc1NC(=O)c1cc(-c2cccnc2)nc2ccc(C)cc12 [CBK267757] | 100.63 | –
52 | N#C/C(=C\C=C\c1ccc([N+](=O)[O-])cc1)c1nc(-c2cc3cc([N+](=O)[O-])ccc3oc2=O)cs1 [CBK262357] | 97.7494 | –
53 | Cc1nc2c(s1)C[C@@H]1[C@](C)(CO)[C@H](O)CC[C@@]1(C)[C@@H]2CC(=O)O [CBK289571] | 112.426 | –
54 | C=Cn1cc(CN2CCC(O)(c3ccccc3C)CC2)c(C)n1 [CBK282580] | 86.6728 | –

Row | Compound | % of control remaining [1] | % of control remaining (total inclusion area, 28.5 h, 10 µM, inhibitor)
55 | FC(F)(F)Oc1ccc(-c2cc(NCCc3ccccn3)ncn2)cc1 [CBK037732] | 100.886 | –
56 | CCc1csc(CCNc2ccc(-c3nc(C4CC4)no3)cn2)n1 [CBK306608] | 82.119 | –
57 | O=C(Nc1ccc(OCc2ccccc2)cc1)c1cnc2n(c1=O)CCS2 [CBK287378] | 119.931 | –
58 | Cc1ccc(Nc2cc(-c3cccc4oc5ccccc5c34)ncn2)cc1NS(C)(=O)=O [CBK091150] | 82.5703 | –
59 | CCC(c1ccc(F)cc1F)N1CCN(Cc2nc(C)no2)CC1 (stereo not shown) [CBK304032] | 45.1187 | –
60 | Cc1cc2ccccc2n2c(SCC(=O)Nc3nsc(-c4ccccc4)n3)nnc12 [CBK265673] | 105.492 | –
61 | Cc1ccnc(NC(=O)C2CCCN(C(=O)OC(C)(C)C)C2)c1 (stereo not shown) [CBK305875] | 24.8997 | –
62 | Cc1sc2nc(N)c(C(=O)NC(C)C)cc2c1C [CBK269259] | 120.163 | –
63 | COc1ccc(C(CC(=O)O)CC(=O)O)cc1OC [CBK263545] | 113.264 | –
64 | CNC(=O)CN1C(=O)CC2(C1=O)C(=O)N(C)c1ccc(OC)cc12 (stereo not shown) [CBK075190] | 102.902 | –
65 | Cc1ccnc(-n2sc3ccccc3c2=O)n1 [CBK116499] | 80.9932 | –
66 | COc1ccc(S(=O)(=O)NCC(=O)O)cc1OC [CBK034454] | 118.076 | –
67 | CCc1cccc(CN2CCC(CNC(=O)Nc3ccc(Cl)cc3)CC2)c1 [CBK269151] | 84.0376 | –
68 | Cc1cccc(C)c1NC(=O)CN1CCN(c2nccnc2OCC2COc3ccccc3O2)CC1 (stereo not shown) [CBK082801T] | 85.0571 | –
69 | CCC(NS(=O)(=O)c1ccc(OC)cc1)C(=O)O (stereo not shown) [CBK264509] | 116.92 | –
70 | Cc1cc(C(=O)NCc2ccc(C(=O)O)cc2)no1 [CBK268108] | 109.623 | –
71 | Cn1cc(C(=O)Nc2ccc3c(c2)CN(Cc2ccccc2)C3)cn1 [CBK281838] | 127.852 | –
72 | CC(CCCC(C)(C)O)NS(=O)(=O)c1ccc(-c2ccon2)s1 (stereo not shown) [CBK062466] | 87.0333 | –
73 | c1ccc(CCN2CCN(CC3COc4ccccc4O3)CC2)cc1 (stereo not shown) [CBK138342] | 90.9566 | –
74 | CCCCn1c(SCC(=O)c2cc(C)n(CCc3ccc(OC)cc3)c2C)n[nH]c1=O [CBK295351] | 113.953 | –
75 | COc1ccccc1NC(=O)C1CN(S(=O)(=O)c2ccccc2)CCN1S(=O)(=O)c1ccccc1 (stereo not shown) [CBK262673] | 99.6291 | –
76 | CCOC(=O)c1sc(-c2cccc(C)n2)nc1O [CBK081083] | 89.4749 | –
77 | O=C(c1nc2ccccn2c1CN1CCCC(O)C1)N1CCOCC1 (stereo not shown) [CBK307237] | 66.9993 | –
78 | Cc1cccc(NC(=O)c2ccccc2NS(=O)(=O)c2ccc(F)c(F)c2)c1 [CBK113810] | 98.4745 | –
79 | COCCn1c(=O)n(CC=C(C)C)c2cccnc21 [CBK283534] | 82.6242 | –
